By IC50 is meant the dose at which the fit gives 50% viability; a fit beyond the top or the lowest dose is shown as a bound at that dose. The AUC spans the tested range (256-fold, ending at the top dose) of the same fit; values near 1 show little effect. For part of these data: Where the top dose is marked as inferred, it was calculated from the reported fits. For part of these data: Where an entry number is given, a second screen of the drug exists; the two often differ.
Key:
Test in all cases: Viability of human cancer cell lines after 72 h of drug (GDSC screen)
Pazopanib = compound: Cc1ccc(Nc2nccc(N(C)c3ccc4c(C)n(C)nc4c3)n2)cc1S(N)(=O)=O [Pazopanib]; conditions: top dose 8 µM
Experimental: (§1)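 Human cancer cell lines in 384-well plates, medium with 10% serum, drug for 72 h over a 256-fold dose range (nine 2-fold or five 4-fold steps up to the top dose). Adherent lines were fixed and stained with the nucleic acid dye Syto60, suspension lines read with resazurin; signal relative to control wells, capped at 0 and 100%. One two-parameter sigmoid per drug and line, fitted in a mixed model over all curves with the slope shared within a line.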

CEP-701 = compound: C[C@]12O[C@H](C[C@]1(O)CO)n1c3ccccc3c3c4c(c5c6ccccc6n2c5c31)CNC4=O [CEP-701]; conditions: top dose 2 µM; top dose inferred
Experimental: as §1

SB 216763 = compound: Cn1cc(C2=C(c3ccc(Cl)cc3Cl)C(=O)NC2=O)c2ccccc21 [SB 216763]; conditions: top dose 10 µM; top dose inferred
Experimental: as §1

GDC0941 = compound: CS(=O)(=O)N1CCN(Cc2cc3nc(-c4cccc5[nH]ncc45)nc(N4CCOCC4)c3s2)CC1 [GDC0941]; conditions: top dose 4 µM; screen: GDSC drug entry 1527; top dose inferred
Experimental: as §1

AR-42 = compound: CC(C)[C@H](C(=O)Nc1ccc(C(=O)NO)cc1)c1ccccc1 [AR-42]; conditions: top dose 5.12 µM; top dose inferred
Experimental: as §1

Row | Cell Line | AUC (Pazopanib) | IC50 (Pazopanib) [µM] | AUC (CEP-701) | IC50 (CEP-701) [µM] | AUC (SB 216763) | IC50 (SB 216763) [µM] | AUC (GDC0941) | IC50 (GDC0941) [µM] | AUC (AR-42) | IC50 (AR-42) [µM]
1 | KP-3 (pancreas, adherent) | 0.943 | > 8 | 0.8 | 1.18 | 0.983 | > 10 | 0.89 | > 4 | 0.765 | 2.23
2 | KU-19-19 (bladder, adherent) | 0.97 | > 8 | 0.716 | 0.51 | 0.978 | > 10 | 0.94 | > 4 | 0.55 | 0.437
3 | KYM-1 (rhabdomyosarcoma, adherent) | 0.978 | > 8 | 0.808 | 0.86 | 0.991 | > 10 | 0.896 | 3.64 | 0.551 | 0.431
4 | KYSE-50 (oesophagus, adherent) | 0.868 | 6.27 | 0.8 | 0.869 | 0.99 | > 10 | 0.932 | > 4 | 0.77 | 1.78
5 | KYSE-70 (oesophagus, adherent) | 0.888 | > 8 | 0.904 | > 2 | 0.987 | > 10 | 0.851 | 3.52 | 0.683 | 1.1
6 | KYSE-150 (oesophagus, adherent) | 0.976 | > 8 | 0.76 | 0.679 | 0.96 | > 10 | 0.952 | > 4 | 0.852 | 3.7
7 | KYSE-220 (oesophagus, adherent) | 0.985 | > 8 | 0.721 | 0.551 | 0.986 | > 10 | 0.904 | > 4 | 0.679 | 1.04
8 | KYSE-510 (oesophagus, adherent) | 0.963 | > 8 | 0.881 | 1.49 | 0.992 | > 10 | 0.884 | 3.08 | 0.733 | 1.28
9 | KYSE-520 (oesophagus, adherent) | 0.946 | > 8 | 0.837 | > 2 | 0.971 | > 10 | 0.858 | > 4 | 0.741 | 2.03
10 | LCLC-97TM1 (large cell lung carcinoma, adherent) | 0.881 | > 8 | 0.622 | 0.28 | 0.93 | > 10 | 0.815 | 2.46 | 0.546 | 0.432
11 | LCLC-103H (large cell lung carcinoma, adherent) | 0.679 | 1.49 | 0.822 | 1.02 | 0.969 | > 10 | 0.972 | > 4 | 0.606 | 0.605
12 | LK-2 (lung squamous cell carcinoma, adherent) | 0.758 |  | 0.555 | 0.175 | 0.989 | > 10 | 0.925 | > 4 | 0.53 | 0.384
13 | LN-229 (glioma, adherent) | 0.964 | > 8 | 0.791 | 0.894 | 0.957 | > 10 | 0.857 | 3.23 | 0.673 | 0.97
14 | LN-405 (glioma, adherent) | 0.852 | > 8 | 0.792 | 1.17 | 0.966 | > 10 | 0.796 | 2.44 | 0.678 | 1.15
15 | LOUCY (T-cell lymphoblastic leukaemia, suspension) | 0.99 | > 8 | 0.657 | 0.311 | 0.991 | > 10 | 0.817 | 1.73 | 0.409 | 0.189
16 | LS-180 (large intestine, adherent) | 0.985 | > 8 | 0.813 | 1.27 | 0.966 | > 10 | 0.613 | 0.536 | 0.658 | 0.939
17 | LU-135 (small cell lung carcinoma, suspension) | 0.969 | > 8 | 0.555 | 0.172 | 0.986 | > 10 | 0.97 | > 4 | 0.511 | 0.341
18 | LoVo (large intestine, adherent) | 0.87 | 7.58 | 0.334 | 0.043 | 0.889 | > 10 | 0.685 | 0.827 | 0.745 | 1.62
19 | M14 (melanoma, adherent) | 0.866 | 7.79 | 0.382 | 0.0581 | 0.986 | > 10 | 0.94 | > 4 | 0.694 | 1.16
20 | M059J (glioma, adherent) | 0.766 | 3.2 | 0.695 | 0.465 | 0.95 | > 10 | 0.905 | > 4 | 0.624 | 0.725
21 | MC-IXC (neuroblastoma, adherent) | 0.473 | 0.43 | 0.21 | 0.0241 | 0.976 | > 10 | 0.984 | > 4 | 0.477 | 0.281
22 | MDA-MB-175-VII (breast, adherent) | 0.981 | > 8 | 0.809 | 1.18 | 0.988 | > 10 | 0.835 | 3.01 | 0.675 | 1.04
23 | MEL-JUSO (melanoma, adherent) | 0.975 | > 8 | 0.698 | 0.484 | 0.984 | > 10 | 0.785 | 1.93 | 0.54 | 0.417
24 | MFE-280 (endometrium, adherent) | 0.911 | > 8 | 0.892 | > 2 | 0.898 | > 10 | 0.401 | 0.125 | 0.63 | 0.81
25 | MFE-296 (endometrium, adherent) | 0.536 | 0.633 | 0.493 | 0.12 | 0.985 | > 10 | 0.735 | 1.24 | 0.89 | > 5.12

Row | Cell Line | AUC (Pazopanib) | IC50 (Pazopanib) [µM] | AUC (CEP-701) | IC50 (CEP-701) [µM] | AUC (SB 216763) | IC50 (SB 216763) [µM] | AUC (GDC0941) | IC50 (GDC0941) [µM] | AUC (AR-42) | IC50 (AR-42) [µM]
26 | MHH-ES-1 (Ewing sarcoma, adherent) | 0.969 | > 8 | 0.591 | 0.221 | 0.979 | > 10 | 0.765 | 1.45 | 0.437 | 0.216
27 | MOG-G-CCM (glioma, adherent) | 0.908 | > 8 | 0.562 | 0.19 | 0.842 | 8.81 | 0.7 | 1.01 | 0.541 | 0.423
28 | Mewo (melanoma, adherent) | 0.923 | > 8 | 0.713 | 0.571 | 0.98 | > 10 | 0.831 | 3.24 | 0.652 | 0.92
29 | NCI-H292 (lung adenocarcinoma, adherent) | 0.976 | > 8 | 0.463 | 0.0971 | 0.928 | > 10 | 0.494 | 0.239 | 0.487 | 0.292
30 | NCI-H358 (lung adenocarcinoma, adherent) | 0.892 | > 8 | 0.913 | > 2 | 0.978 | > 10 | 0.865 | > 4 | 0.516 | 0.355
31 | NCI-H441 (lung adenocarcinoma, adherent) | 0.965 | > 8 | 0.878 | > 2 | 0.965 | > 10 | 0.682 | 0.998 | 0.768 | 2.73
32 | NCI-H520 (lung squamous cell carcinoma, adherent) | 0.822 | 4.87 | 0.579 | 0.207 | 0.987 | > 10 | 0.885 | > 4 | 0.562 | 0.476
33 | NCI-H596 (lung adenocarcinoma, adherent) | 0.954 | > 8 | 0.814 | 1.52 | 0.979 | > 10 | 0.777 | 2.11 | 0.642 | 0.888
34 | NCI-H650 (lung adenocarcinoma, adherent) | 0.983 | > 8 | 0.67 | 0.393 | 0.914 | > 10 | 0.917 | > 4 | 0.625 | 0.732
35 | NCI-H727 (lung carcinoid, adherent) | 0.773 | 5.54 | 0.605 | 0.292 | 0.959 | > 10 | 0.898 | > 4 | 0.808 | > 5.12
36 | NCI-H810 (large cell lung carcinoma, adherent) | 0.845 | 5.4 | 0.747 | 0.614 | 0.988 | > 10 | 0.958 | > 4 | 0.276 | 0.0763
37 | NCI-H1048 (small cell lung carcinoma, adherent) | 0.96 | > 8 | 0.554 | 0.173 | 0.983 | > 10 | 0.765 | 1.32 | 0.671 | 0.906
38 | NCI-H1435 (lung adenocarcinoma, semi-adherent) | 0.95 | > 8 | 0.992 | > 2 | 0.976 | > 10 | 0.973 | > 4 | 0.821 | 2.55
39 | NCI-H1563 (lung adenocarcinoma, adherent) | 0.975 | > 8 | 0.894 | > 2 | 0.985 | > 10 | 0.621 | 0.573 | 0.794 | 2.86
40 | NCI-H1568 (lung adenocarcinoma, adherent) | 0.967 | > 8 | 0.805 | 1.32 | 0.978 | > 10 | 0.763 | 1.79 | 0.979 | > 5.12
41 | NCI-H1623 (lung adenocarcinoma, adherent) | 0.985 | > 8 | 0.872 | > 2 | 0.985 | > 10 | 0.735 | 1.39 | 0.564 | 0.498
42 | NCI-H1651 (lung adenocarcinoma, adherent) | 0.916 | > 8 | 0.89 | > 2 | 0.983 | > 10 | 0.967 | > 4 | 0.577 | 0.529
43 | NCI-H1688 (small cell lung carcinoma, adherent) | 0.952 | > 8 | 0.886 | > 2 | 0.987 | > 10 | 0.971 | > 4 | 0.77 | 2.15
44 | NCI-H1693 (lung adenocarcinoma, adherent) | 0.903 | > 8 | 0.966 | > 2 | 0.969 | > 10 | 0.813 | > 4 | 0.475 | 0.262
45 | NCI-H1755 (lung adenocarcinoma, adherent) | 0.884 | > 8 | 0.569 | 0.198 | 0.969 | > 10 | 0.707 | 1.06 | 0.408 | 0.172
46 | NCI-H1792 (lung adenocarcinoma, adherent) | 0.984 | > 8 | 0.792 | 0.808 | 0.956 | > 10 | 0.67 | 0.707 | 0.866 | 3.84
47 | NCI-H2023 (lung adenocarcinoma, adherent) | 0.978 | > 8 | 0.717 | 0.605 | 0.905 | > 10 | 0.642 | 0.685 | 0.76 | 2.23
48 | NCI-H2029 (small cell lung carcinoma, adherent) | 0.992 | > 8 | 0.911 | > 2 | 0.989 | > 10 | 0.984 | > 4 | 0.531 | 0.385
49 | NCI-H2087 (lung adenocarcinoma, semi-adherent) | 0.909 | > 8 | 0.882 | > 2 | 0.97 | > 10 | 0.937 | > 4 | 0.621 | 0.71

From the supplement of paper PMC4967469
